# In all, about 110,000 compounds were measured (“z-score”: median about -0.1, highest 2% from about 2 on). The list shows a part of the results. Activity calls are given as the source filed them.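 The calls were made as follows: active = z-score in the third read window above 3 or below -3; inactive = the rest.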
# Molecular target: Metabotropic glutamate receptor 8 (Rattus norvegicus) (UniProt P70579)
# Test: mGluR8 Gi/Go-coupled signaling modulation – cell-based, rat, thallium flux, HTS, primary screen (AID 488969)
# Details: HEK293 rat mGluR8, GIRK (G protein-gated inwardly rectifying potassium channel) thallium flux, FluoZin2; at 10 µM; stronger effect = higher value; submaximal glutamate (EC20) added with thallium
# Sequence of UniProt P70579 (P70579 whole entry, looked up): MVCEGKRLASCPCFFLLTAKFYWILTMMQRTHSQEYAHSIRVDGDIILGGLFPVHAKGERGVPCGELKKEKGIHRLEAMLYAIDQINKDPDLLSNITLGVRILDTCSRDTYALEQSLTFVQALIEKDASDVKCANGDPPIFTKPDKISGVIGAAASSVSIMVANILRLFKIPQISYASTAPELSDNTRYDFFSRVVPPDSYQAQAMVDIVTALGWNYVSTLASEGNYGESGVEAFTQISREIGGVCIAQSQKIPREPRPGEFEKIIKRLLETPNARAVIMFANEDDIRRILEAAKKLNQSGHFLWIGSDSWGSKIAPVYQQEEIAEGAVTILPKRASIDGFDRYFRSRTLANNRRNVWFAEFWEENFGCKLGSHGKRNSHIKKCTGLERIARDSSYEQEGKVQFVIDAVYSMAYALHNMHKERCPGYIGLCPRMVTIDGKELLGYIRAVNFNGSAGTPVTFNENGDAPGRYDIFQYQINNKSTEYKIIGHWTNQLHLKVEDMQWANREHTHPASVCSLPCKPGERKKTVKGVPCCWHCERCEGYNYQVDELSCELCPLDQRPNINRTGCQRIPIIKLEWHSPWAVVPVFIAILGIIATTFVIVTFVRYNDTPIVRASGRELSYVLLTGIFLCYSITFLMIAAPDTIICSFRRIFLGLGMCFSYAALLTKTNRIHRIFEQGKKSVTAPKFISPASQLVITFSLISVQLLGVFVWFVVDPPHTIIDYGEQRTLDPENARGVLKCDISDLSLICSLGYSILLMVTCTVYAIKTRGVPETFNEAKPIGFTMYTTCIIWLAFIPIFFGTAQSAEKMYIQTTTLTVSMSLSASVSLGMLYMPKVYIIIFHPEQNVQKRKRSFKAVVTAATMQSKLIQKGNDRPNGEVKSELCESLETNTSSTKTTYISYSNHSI
row,SMILES,z-score
1,N#CC(Cc1ccc(OC(F)F)cc1)c1nc2ccccc2[nH]1 (centres undefined),0.023
2,CCn1c(SCC(=O)N2CCN(c3ccccc3)CC2)nc2c(c1=O)SC(C)C2 (centres undefined),0.538
3,Cc1nc2ccccc2n1C1CC(=O)N(N(C)C)C1=O (centres undefined),-0.197
4,CCOc1cc(C)c(Cl)cc1S(=O)(=O)NC1CC(C)(C)NC(C)(C)C1,-0.0909
5,O=C(O)CCCCCNS(=O)(=O)c1cccc2c1C(=O)c1ccccc1C2=O,-0.121
6,O=C(CSC1=NC(=O)C(Cc2ccccc2)C(=O)N1)NC1CCCCC1 (centres undefined),0.139
7,COc1ccc(CCNC2CC(=O)N(CCc3ccccc3)C2=O)cc1 (centres undefined),-0.185
8,CNC(=O)COC(=O)c1cc(=O)[nH]c2ccccc12,-0.298
9,Cc1cc(/C=C(\C#N)C(=O)Nc2ccccc2)c(C)n1-c1ccc2c(c1)OCO2,-0.335
10,O=C(Nc1ccccc1C(F)(F)F)c1ccc(CN2CCC(Cc3ccccc3)CC2)cc1,-0.134
11,CCN1C(=O)/C(=C/c2cnn(CC)c2C)SC1=S,-0.201
12,O=C(Nc1ccccc1)c1cccnc1Nc1ccccc1,0.425
13,CCOC(=O)c1cc2c(=O)n3cccc(C)c3nc2n(CCCOC)c1=NC(=O)c1cccnc1,-0.804
14,Cc1nn(CC(=O)Nc2ccc3c(c2)nc(CN2CCCC2)n3C)c(=O)c2ccccc12,-0.267
15,COc1ccccc1N1CCN(C(=O)CCc2ccc(S(=O)(=O)NCC(C)C)cc2)CC1,-0.645
16,O=C(NC1CCCCC1)n1c(=O)oc2ccc(Cl)cc21,0.281
17,COc1cc(/C=C(/C(=O)c2cccs2)c2nc3ccccc3[nH]2)cc(OC)c1O,-0.306
18,CCOC(=O)C1=C(Cn2cnc3ccccc32)NC(=O)NC1c1ccc(OC)cc1 (centres undefined),0.25
19,CCCc1nnc(NC(=O)CCCC(=O)O)s1,0.133
20,O=c1c2ccccc2nc(-c2ccc(Br)cc2)n1Cc1ccccc1,0.236
21,O=C(Nc1ccc(Br)cc1Cl)Nn1cnnc1,0.372
22,O=C(CCN1C(=O)S/C(=C\c2cccs2)C1=O)NC1=NCCS1,-0.157

row,SMILES,z-score
1,CCCCCCn1c(SCCN2CCOCC2)nc2c1c(=O)[nH]c(=O)n2C,0.139
2,O=c1c(Cc2ccc(Cl)cc2)c(O)ccn1Cc1ccccc1,-0.13
3,CCOc1ncccc1C(=O)OCC(=O)Nc1ccc(S(=O)(=O)N2CCOCC2)cc1,-0.343
4,Cc1ccc(Oc2ccc(NC(=O)CCC(=O)OCC(=O)c3cccs3)cc2)cc1C,-0.166
5,CCN(CC)c1ccc(/C=N/NC(=O)c2cccc(S(=O)(=O)Nc3ccccc3OC)c2)c(O)c1,-0.382
6,CC(O)CN(CCC(N)=O)CCC(N)=O (centres undefined),0.0155
7,CCOC(=O)c1cnc2c(C(=O)OC)cccc2c1NCCN1CCOCC1,0.0487
8,CCOC(=O)N1CCN(C(=O)COc2cccc3c2CCN(Cc2cccc(C)c2)C3=O)CC1,-1.44
9,Cc1nnc(SCc2ccc(C(=O)Nc3cc(Cl)ccc3C)cc2)s1,-0.409
10,CCc1ccc2c(c1)C1(SC(NC(C)=O)=NN1C(C)=O)C(=O)N2C(C)C (centres undefined),-0.0638
11,CNS(=O)(=O)c1cccc(C(=O)OCC(=O)Nc2ccccc2OC(F)F)c1,-0.0739
12,CN(C)/C=C(/C(=O)c1ccc(Cl)cc1)S(=O)(=O)c1ccc(Cl)cc1,-0.209
13,Cc1cc(NS(=O)(=O)c2ccc(NC(=O)CSc3nnc(-c4ccco4)n3N)cc2)nc(C)n1,0.0831
14,CCOC(=O)N1CCC(NC(=O)c2cnn3c2NC(c2ccco2)CC3C(F)(F)F)CC1 (centres undefined),active: 4.33
15,Cc1c(C(=O)NCC2CCCO2)oc2ccc3c(c12)C(=O)CC(C)(C)O3 (centres undefined),-0.495
16,Cc1ccc2nc(-c3cc(N)cc(N)c3)oc2c1,-0.108
17,COc1ccc(Oc2c(C)oc3c(CN(C)C)c(O)ccc3c2=O)cc1,0.571
18,CCn1c(CCCOc2ccc(Cl)cc2Cl)nnc1SCC(=O)Nc1cccc(F)c1,-0.135
19,CC1=C(C(N)=O)C(c2ccco2)C(C(N)=O)=C(C)N1,0.671
20,Cc1ccc2c(n1)sc1c(N)ncnc12,0.306
21,O=C(C1=C(O)C(=O)N(c2ncccn2)C1c1cccs1)c1ccco1 (centres undefined),-0.405
22,CCOc1ccc(NC(=O)CN2CCN(CC(=O)Nc3ccc(F)c(F)c3)CC2)cc1,-0.0841

row,SMILES,z-score
1,Cc1cc(Br)cc2c(C(=O)Nc3c(C)n(C)n(-c4ccccc4)c3=O)cc(-c3cccs3)nc12,-1.55
2,CCOc1cc2[nH]c(=S)n(CCc3ccc(OC)c(OC)c3)c(=O)c2cc1OCC,0.145
3,CCOc1cc(CNc2ccc3[nH]c(=O)[nH]c3c2)ccc1OCC(=O)NC(C)(C)C,-0.18
4,COc1ccc(F)cc1S(=O)(=O)NC1CCCCCC1,-2.12
5,COc1ccc(C2=Nc3ccccc3OC2)cc1,-0.349
6,COc1ccc(N(C(=O)c2ccco2)S(=O)(=O)c2ccc(F)cc2)cc1,-0.326
7,CCOC(=O)C1=C(C)OC(N)=C(C#N)C1c1cncc(-c2ccc(F)cc2)c1 (centres undefined),2.92
8,O=C(COc1ccccc1F)N1c2ccccc2CCc2ccccc21,-0.375
9,Cc1c(CCC(=O)O)c(=O)oc2cc3occ(-c4ccc(F)cc4)c3cc12,1.01
10,Cc1cc(OCc2ccc(C(=O)NN=C3CCCC3)cc2)ccc1Cl,-0.135
11,COc1cccc(NC(=O)CSc2nc3c(c(-c4ccco4)c2C#N)CCCC3)c1,-0.188
12,Cc1ccc(S(=O)(=O)N2CCC(C(=O)NCCc3ccccc3)CC2)cc1,0.763
13,Cc1cc(Nc2ccccc2)n(-c2ccccc2)n1,0.00239
14,CCOC(=O)CNC(=O)CSc1nnc(-c2ccncc2)n1-c1ccc(Cl)cc1,-0.00946
15,CCOC(=O)N1CCN(C(=O)COc2cc(=O)n(C)c3ccccc23)CC1,-0.979
16,CCCN1C(=O)/C(=C/c2c(NCCCOCC)nc3c(C)cccn3c2=O)SC1=S,-0.31
17,O=C(CSc1nnc(Cc2cccs2)n1Cc1ccco1)Nc1ccc(Cl)cc1Cl,-0.136
18,COc1ccccc1NC(=O)c1ccc(NC(=O)COC(=O)C2CCCCC2)cc1,-0.369
19,O=C(COc1ccccc1Cl)NC(=O)NC1CCCC1,0.502
20,O=C(c1csc2ccccc12)n1cccn1,-0.242
21,COc1ccc(NC(=O)c2ccccc2NC(=O)c2ccco2)c(OC)c1,0.217
22,CCn1ccc2cc(OC)ccc2c1=S,-0.0313

row,SMILES,z-score
1,Cc1ccc(NC(=O)c2snc3ccc(Cl)cc23)cc1C,0.00746
2,CC(C)CCn1nc(C(=O)OC(C)C(=O)NC(N)=O)c2ccccc2c1=O (centres undefined),-0.395
3,CCOC(=O)c1c(C)nc2ccccc2c1C,-0.26
4,Cc1ccc(-n2nc(CC#N)c(C#N)c2N)cc1Cl,-0.281
5,Cc1ccc(-n2c(SCc3nc4ccccc4[nH]3)nnc2-c2ccncc2)cc1,-0.18
6,Cc1ccc(OCC(=O)Nc2ccc3c(c2)nc2n3CCOC2)cc1,-0.116
7,NC(=S)N=Nc1c(O)n(Cc2ccc(Br)cc2)c2ccccc12,-0.0836
8,O=C(C(Cc1ccccc1)N1C(=O)C2C3CCC(C3)C2C1=O)N1CCCCC1 (centres undefined),0.123
9,CCSc1nc(=S)n(-c2ccccc2)c(C)c1C(C)=O,-0.643
10,CCN(CC)S(=O)(=O)c1cc(NC(=O)CCCOc2ccc(C(C)=O)cc2)ccc1C,-0.346
11,O=C(CN1CCN(c2ncccn2)CC1)N1CCN(C(c2ccccc2)c2ccccc2)CC1,-1.15
12,Cc1cc(C)n2nc(CC(=O)NCc3ccc(F)cc3)nc2n1,-0.0948
13,Cc1ccc(C(=O)N2CCN(c3cc(=O)[nH]nc3-c3ccccc3)CC2)cc1,-0.0168
14,O=C(NC1CCC(C(=O)O)CC1)OCc1ccccc1 (centres undefined),-0.311
15,CC1=C(C(=O)OC(C)C)C(c2c[nH]c3ccccc23)n2ncnc2N1 (centres undefined),-0.273
16,CN(C)c1ccc(/C=C2\CCCCC2=O)cc1,-0.138
17,NC(=O)C1CCCN(C(=O)Nc2cccc3ccccc23)C1 (centres undefined),0.107
18,CC1CCCN(CC(O)CN)C1 (centres undefined),0.769
19,COc1cccc(/C=N/n2nnnc2N)c1OCc1ccccc1Cl,-0.062
20,C1CCC(OCCN2CCN(CCOC3CCCCC3)CC2)CC1,-0.0284
21,CNC(=S)N1C2CCC1CC(NC(=O)NC13CC4CC(CC(C4)C1)C3)C2 (centres undefined),-0.976
22,CCOC(=O)Nc1ccc2c(c1)N(C(=O)CCN1CCN3CCCC3C1)c1ccccc1CC2 (centres undefined),-0.0738

row,SMILES,z-score
1,Cc1ccc(C)n1-n1cnc2sc(-c3ccccc3)cc2c1=O,-0.837
2,O=c1[nH]c(SCc2n[nH]c(=S)n2-c2ccccc2)nc2sc3c(c12)CCC3,-1.95
3,CCN(CC)CC(=O)Nc1ccc(C)cc1Br,-0.354
4,S=C(NC1CCCCC1)N(CCc1ccccc1)CCc1ccccc1,-0.15
5,CCOC(=O)CC1=C(C(=O)OCC)C(c2cccnc2)C(C#N)=C(N)O1 (centres undefined),0.236
6,Cc1cc2c(cc1C)CSC(c1ccccc1O)SC2,-0.181
7,CCCC(=O)Oc1ccccc1C1SCc2cc(C)c(C)cc2CS1,-0.18
8,CC(C)c1cccc(C(C)C)c1NC(=O)Cn1c(=O)cnc2ccccc21,0.939
9,Cc1ccc(-n2c3c(c(=O)[nH]c2=O)C(NS(=O)(=O)c2ccc(C)cc2)(C(F)(F)F)C(=O)N3)cc1 (centres undefined),-0.092
10,COc1cc(CCC(=O)N2CCN(S(=O)(=O)c3ccc(C)c(C)c3)CC2)cc(OC)c1OC,-1.6
11,CC(=O)Nc1nc2c(c3c1c(=O)oc1ccccc13)CCCCC2,-0.32
12,Cc1cccc(C)c1NC(=O)Cn1cnc2c(=O)n(C)c(=O)n(C)c21,0.156
13,N#Cc1cn(CC(=O)NCC2CCCO2)c2ccccc12 (centres undefined),0.16
14,COc1cccc2sc(Nc3nc(-c4cc5ccccc5oc4=O)cs3)nc12,0.111
15,COc1ccc(C=NCC2COc3ccccc3O2)cc1OC (centres undefined),0.0101
16,CSc1nc2nc(-c3ccccc3)cc(C(F)(F)F)n2n1,0.0884
17,COc1cc(/C=C(/C#N)c2nc3ccccc3[nH]2)ccc1OCC(=O)Nc1ccccc1C,-0.788
18,O=C(Nc1ccc2sc3ccccc3c(=O)c2c1)c1ccccc1Cl,-0.0532
19,O=C(c1cccc(C(F)(F)F)c1)N1CCN(C2CCCCC2)CC1,0.215
20,COc1ccc(NC(=S)N2CCC(c3nc4ccc(Cl)cc4[nH]3)CC2)c(OC)c1,-0.576
21,Cc1ccc(NC(=O)c2cncc(Br)c2)cc1S(=O)(=O)N(C)C,-0.106

# Reference: PubChem BioAssay AID488969 (Vanderbilt High Throughput Screening Facility, 2010)
